Laboratory results: PMC4336329 (PLoS ONE, 2015)
The whole screen tested about 310,000 compounds, of which about 14,000 (4.5%) showed an effect of 50% or more. The effect is printed as a negative number. Some of the results follow.
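Further: peak tail current of the secondary pulse compared with the same well before compound.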

The compounds below were run against human ether-à-go-go-related gene (hERG) potassium channel (human, UniProt Q12809) (assay: primary screen, population patch clamp on CHO cells stably expressing hERG).
Chain of human ether-à-go-go-related gene (hERG) potassium channel (Q12809 whole entry, looked up): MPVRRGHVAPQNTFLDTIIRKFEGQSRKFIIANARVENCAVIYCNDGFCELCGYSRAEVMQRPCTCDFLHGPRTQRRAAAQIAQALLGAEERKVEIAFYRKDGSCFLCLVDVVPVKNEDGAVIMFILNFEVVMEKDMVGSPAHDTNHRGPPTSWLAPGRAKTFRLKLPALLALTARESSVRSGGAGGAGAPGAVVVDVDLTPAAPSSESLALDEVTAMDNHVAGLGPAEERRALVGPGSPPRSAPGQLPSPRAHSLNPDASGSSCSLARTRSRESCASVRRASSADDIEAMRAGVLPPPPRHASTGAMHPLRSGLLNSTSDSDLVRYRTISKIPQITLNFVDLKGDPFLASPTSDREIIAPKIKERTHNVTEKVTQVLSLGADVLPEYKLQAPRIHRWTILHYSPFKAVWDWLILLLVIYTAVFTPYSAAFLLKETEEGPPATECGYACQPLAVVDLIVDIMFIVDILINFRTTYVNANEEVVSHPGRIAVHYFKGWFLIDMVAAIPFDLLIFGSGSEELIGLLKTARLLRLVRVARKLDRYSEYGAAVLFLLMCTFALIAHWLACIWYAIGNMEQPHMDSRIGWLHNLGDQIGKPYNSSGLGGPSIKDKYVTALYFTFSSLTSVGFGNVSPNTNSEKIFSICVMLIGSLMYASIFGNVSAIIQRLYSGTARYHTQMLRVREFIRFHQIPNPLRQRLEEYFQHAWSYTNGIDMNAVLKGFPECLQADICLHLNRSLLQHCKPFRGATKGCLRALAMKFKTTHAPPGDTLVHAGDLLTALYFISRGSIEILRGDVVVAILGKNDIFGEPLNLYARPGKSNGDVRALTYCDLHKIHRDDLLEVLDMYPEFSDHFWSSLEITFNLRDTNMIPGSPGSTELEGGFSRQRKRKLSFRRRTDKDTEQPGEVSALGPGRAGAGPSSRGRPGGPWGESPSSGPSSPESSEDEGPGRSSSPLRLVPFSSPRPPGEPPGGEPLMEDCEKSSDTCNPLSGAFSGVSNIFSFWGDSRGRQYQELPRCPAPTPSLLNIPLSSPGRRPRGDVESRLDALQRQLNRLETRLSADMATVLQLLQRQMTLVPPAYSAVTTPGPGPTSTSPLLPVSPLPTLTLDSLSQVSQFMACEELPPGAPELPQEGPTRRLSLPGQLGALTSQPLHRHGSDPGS
`Cn1cc(CN2CCN(Cc3cccnc3)CC2)c(-c2ccc3c(c2)OCCO3)n1` was tested, and the “hERG current change (%, negative = inhibition) at 10uM” value was -27.1%. With `CCOC(=O)C1=C(C)NC(=O)NC1c1ccc(-c2ccc(Cl)cc2)o1` (stereo not drawn) the “hERG current change (%, negative = inhibition) at 10uM” value was 16.1%. For `CCc1c(C(=O)Nc2ccccc2C(N)=O)csc1C`, the “hERG current change (%, negative = inhibition) at 10uM” value was 12.7%. For `Cc1ccc(NC(=O)C(=O)NCCN2CCN(S(C)(=O)=O)CC2)cc1`, the “hERG current change (%, negative = inhibition) at 10uM” value was 19.6%. For `CCNc1nc(NC(C)C)nc(Nn2cnnc2)n1`, the “hERG current change (%, negative = inhibition) at 10uM” value was 9.05%. For `CC(C)n1c(SCC(=O)NCc2ccco2)nnc1C1CC1`, the “hERG current change (%, negative = inhibition) at 10uM” value was 20.2%. For `COC(=O)c1ccc(OC(=O)CN2C(=O)c3ccccc3C2=O)cc1`, the “hERG current change (%, negative = inhibition) at 10uM” value was 18.1%. `COc1ccc(C(=O)Nc2ccc(N3CCCC3)cc2)cc1Br` was tested, and the “hERG current change (%, negative = inhibition) at 10uM” value was 6.19%. `COc1cc(O)oc1C=Nc1ccc(C(=O)O)cc1` was tested, and the “hERG current change (%, negative = inhibition) at 10uM” value was 18.2%. For `S=c1[nH]nc(NCCc2ccccc2)s1`, the “hERG current change (%, negative = inhibition) at 10uM” value was 19.3%. With `Cn1c(=O)[nH]c(=O)c2c1nc(SCC(=O)Nc1ccccc1)n2Cc1ccccc1` the “hERG current change (%, negative = inhibition) at 10uM” value was -25.5%. For `CC1(C)C(C(=O)N2CCN(c3ccc(Cl)cc3)CC2)C1(C)C`, the “hERG current change (%, negative = inhibition) at 10uM” value was -9.39%. In the case of `COc1ccc(C(=O)C2CCCN(Cc3ccc4c(c3)OCCO4)C2)cc1F` (stereo not drawn), the “hERG current change (%, negative = inhibition) at 10uM” value is reported as -74.7%. In the case of `COc1cccc(N2CCN(C(=O)c3nc4nc(C)cc(C)n4n3)CC2)c1`, the “hERG current change (%, negative = inhibition) at 10uM” value is reported as 7.28%. For `COC(=O)[C@@H]1C[C@@]2(O)[C@H](O)[C@H](O)[C@H](O)C[C@H]2N1Cc1ccc(C(F)(F)F)cc1`, the “hERG current change (%, negative = inhibition) at 10uM” value was 13.2%. With `CC(=O)Nc1ccc(C(=O)NC(CC(=O)O)c2ccc(Cl)cc2)cc1` (stereo not drawn) the “hERG current change (%, negative = inhibition) at 10uM” value was 1.62%. With `CNc1ccc(/C=C2\CSc3ccccc3C2=O)cc1[N+](=O)[O-]` the “hERG current change (%, negative = inhibition) at 10uM” value was 14.1%. For `CC(=O)N1CCc2cc(S(=O)(=O)NCCCN3CCCCC3)ccc21`, the “hERG current change (%, negative = inhibition) at 10uM” value was 22.9%. `COc1nc(N2CCCCCC2)nc(N2CCCCCC2)n1` was tested, and the “hERG current change (%, negative = inhibition) at 10uM” value was -2.28%. For `COc1ccc(CC(=O)OC(C)C(=O)Nc2ccc(S(N)(=O)=O)cc2)cc1` (stereo not drawn), the “hERG current change (%, negative = inhibition) at 10uM” value was 2.59%. `O=C(N/N=C/C(Br)=C\c1ccccc1)c1cccs1` was tested, and the “hERG current change (%, negative = inhibition) at 10uM” value was -4.13%. With `O=C(NCc1cccnc1)c1csc2c1CCCC2` the “hERG current change (%, negative = inhibition) at 10uM” value was 18.8%. For `CC(C)(C)OC(=O)N1CCC(c2cc(=O)n3[nH]cc(C(=O)Nc4ccc(F)c(Cl)c4)c3n2)CC1`, the “hERG current change (%, negative = inhibition) at 10uM” value was 6.92%. With `Cc1onc(-c2c(F)cccc2Cl)c1C(=O)N1CCN(c2ncc(Br)cn2)CC1` the “hERG current change (%, negative = inhibition) at 10uM” value was -33.7%. In the case of `c1ccc(Nc2nc3ccccc3o2)cc1`, the “hERG current change (%, negative = inhibition) at 10uM” value is reported as 15.7%. `C=CCOc1ccc(/C=C2\SC(=Nc3cccnc3)NC2=O)cc1` was tested, and the “hERG current change (%, negative = inhibition) at 10uM” value was 6.83%. With `Cl.O=C(O)c1ccc(CNCc2ccccc2F)cc1` the “hERG current change (%, negative = inhibition) at 10uM” value was 5.98%. In the case of `COc1ccc2c(c1)C=C(CN1CCN(Cc3ccccc3C)C(CCO)C1)CO2` (stereo not drawn), the “hERG current change (%, negative = inhibition) at 10uM” value is reported as -25.6%. With `S=C(Nc1ccccc1)Nc1nc2ccccc2n1CCOc1ccccc1` the “hERG current change (%, negative = inhibition) at 10uM” value was -0.0816%. With `O=C(CN(c1ccc(Cl)c(Cl)c1)S(=O)(=O)c1ccccc1)N1CCc2ccccc2C1` the “hERG current change (%, negative = inhibition) at 10uM” value was 11.8%. For `O=C(CN1CCN(Cc2ccccc2)C1=O)NCCCN1CCOCC1`, the “hERG current change (%, negative = inhibition) at 10uM” value was 5.12%. For `CC(C)[C@@H](N)C(=O)NCC1CCC(C(=O)N[C@@H](Cc2ccccc2)C(=O)O)CC1.Cl` (stereo partly drawn), the “hERG current change (%, negative = inhibition) at 10uM” value was 16.6%. `O=C(Oc1cncc(Cl)c1)c1ccco1` was tested, and the “hERG current change (%, negative = inhibition) at 10uM” value was -4.17%. In the case of `COCc1cc(C)n(CC(=O)Nc2ccc(Cl)cc2Cl)c(=O)c1C#N`, the “hERG current change (%, negative = inhibition) at 10uM” value is reported as 4.73%. In the case of `COC(=O)CNC(=O)c1cc(-c2ccncc2)nc2c(C)c(Cl)ccc12`, the “hERG current change (%, negative = inhibition) at 10uM” value is reported as -27.9%. In the case of `COc1ccc(CCNC(=O)c2cc(-c3cc(Cl)ccc3O)n[nH]2)cc1OC`, the “hERG current change (%, negative = inhibition) at 10uM” value is reported as 1.89%. For `CC(C)(C)NC(=O)CSc1ccc(C(C)(C)C)cc1`, the “hERG current change (%, negative = inhibition) at 10uM” value was 3.01%. In the case of `CCOc1ccc(N=C2SCC(=O)N2CC)cc1`, the “hERG current change (%, negative = inhibition) at 10uM” value is reported as 12.7%. In the case of `C/C(=N\NC(=O)c1nnn(-c2nonc2N)c1CSc1ccccc1)c1ccco1`, the “hERG current change (%, negative = inhibition) at 10uM” value is reported as 10.8%. In the case of `CC(=O)c1cc2c(cc1NC(=O)CCc1c(C)nc3ncnn3c1C)OCO2`, the “hERG current change (%, negative = inhibition) at 10uM” value is reported as -10.1%. With `CCOC(=O)C1(Cc2cccc(OC)c2)CCCN(C(=O)c2cc(C)[nH]n2)C1` (stereo not drawn) the “hERG current change (%, negative = inhibition) at 10uM” value was -7.8%. For `COCc1cc(C)nc2sc(C(=O)NCCO)c(-n3cccc3)c12`, the “hERG current change (%, negative = inhibition) at 10uM” value was 15.6%. `CN(C)/C=N/c1nc(Sc2ccc(C(F)(F)F)cc2[N+](=O)[O-])n[nH]1` was tested, and the “hERG current change (%, negative = inhibition) at 10uM” value was 6.73%. For `CCNC(=O)c1c(O)c2cccc3c2n(c1=O)CC3`, the “hERG current change (%, negative = inhibition) at 10uM” value was 8.23%. With `Cc1cc(C)c(C#N)c(SCC(=O)Nc2nonc2N)n1` the “hERG current change (%, negative = inhibition) at 10uM” value was 1.81%. `O=C(Nc1ccc2c(c1)OCO2)c1cn(Cc2ccc(F)cc2)nn1` was tested, and the “hERG current change (%, negative = inhibition) at 10uM” value was 9.78%. `O=C1c2cccnc2C(Nc2ccc(Br)cc2Br)N1Cc1cccs1` (stereo not drawn) was tested, and the “hERG current change (%, negative = inhibition) at 10uM” value was 6.27%. `O=C(Nc1cccc(Cl)c1)NC1CCCCC1` was tested, and the “hERG current change (%, negative = inhibition) at 10uM” value was 8.14%. For `Cc1ccc(NC(=O)c2nc[nH]c2C(=O)N[C@@H](C)C(=O)OC(C)(C)C)cc1`, the “hERG current change (%, negative = inhibition) at 10uM” value was 9.98%. For `COc1cccc(CNC(=O)CCC2CCCN(Cc3cc(Cl)ccc3O)C2)c1` (stereo not drawn), the “hERG current change (%, negative = inhibition) at 10uM” value was -60.6%. `C=CCN(C(=O)c1oc2c(Cl)cc(C)cc2c1C)C1CCS(=O)(=O)C1` (stereo not drawn) was tested, and the “hERG current change (%, negative = inhibition) at 10uM” value was -22.4%. With `Cc1ccc(OCCCC(=O)NCc2ccco2)cc1` the “hERG current change (%, negative = inhibition) at 10uM” value was 13.1%. For `COc1ccc(C(=O)N2CCN(C(=O)Cc3ccccc3)CC2)cc1OC`, the “hERG current change (%, negative = inhibition) at 10uM” value was 5.3%. With `O=C(COC(=O)CNC(=O)c1ccc(Br)o1)Nc1ccc2c(c1)OCCO2` the “hERG current change (%, negative = inhibition) at 10uM” value was -20.8%. For `O=C(CCl)N(CCCNC(=O)C(F)(F)F)c1ccc([N+](=O)[O-])cc1`, the “hERG current change (%, negative = inhibition) at 10uM” value was 3.26%. For `COc1cccc(C2[C@H](C)C3(CCN2C)OCCO3)c1.Cl` (stereo partly drawn), the “hERG current change (%, negative = inhibition) at 10uM” value was 3.95%. In the case of `NS(=O)(=O)c1ccc(-c2ccc(C=C3C(=O)c4ccccc4C3=O)o2)cc1`, the “hERG current change (%, negative = inhibition) at 10uM” value is reported as 18.5%.
